The campaign covered roughly 310,000 compounds. About 18,000 (5.8%) were called active. This list was built around the results that the source calls inconclusive (neither active nor inactive); the mix of calls is not that of the screen. Calls follow the shape of the dose curve; as a rule, active = well fitted inhibition curve with a large enough effect; inconclusive = small, poorly fitted or top-dose-only effect, or another doubt; inactive = no such curve, though single readings can be large or run the other way. No potency is given beside an inconclusive call; the fits are too rough.
Experiment: Primary qHTS for delayed death inhibitors of the malarial parasite plastid, 48 hour incubation
Conditions: P. falciparum luciferase growth in erythrocytes; series mostly up to 28.7 µM; activity change, negative = inhibition: at the top concentration
Procedure, shortened: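 Compounds are pin-transferred into medium, infected erythrocytes (2% hematocrit, 0.1% parasitemia final) are added, and plates sit one parasite generation at 37 C in 5% CO2. Detection reagent is then added and luminescence measured.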
% is scaled to controls: 0 for no effect and ±100 for the full control effect; potency is read from the fitted curve at half-maximal effect; tags tell the direction and shape of the fitted curve.

Compound | Potency | activity change, negative = inhibition
COc1cccc(CN2CCN(Cc3nc(-c4cccs4)oc3C)CC2CCO)c1 (centres undefined) | active: 9.28 µM | –
Cc1ccc(S(=O)(=O)N2CCN(C(=O)/C=C/c3ccco3)CC2)cc1 | active: 6.57 µM | –
CS(=O)(=O)N1N=C(c2cccs2)CC1c1ccc(F)cc1 (centres undefined) | – | inactive: 20.6%
CC(C)(C)C(=O)C(CO)(Oc1ccc(Cl)cc1)n1cncn1 (centres undefined) | inconclusive [inhibitor, full curve, poor fit] | –
O=C(NCCCCCCNC(=O)N1CCCCCC1)N1CCCCCC1 | inconclusive [inhibitor, single point] | –
CC(=O)N1CCc2cc(S(=O)(=O)NC(CC(C)C)C(=O)N3CCc4ccccc4C3)ccc21 (centres undefined) | inconclusive [inhibitor, partial curve] | –
COc1cccc(Cn2cccc(NC(=O)Nc3cccc(C#N)c3)c2=O)c1 | inconclusive [inhibitor, single point] | –
Cc1nnc(SC(C)C(=O)Nc2ccc(S(=O)(=O)N3CCCCC3)cc2)s1 (centres undefined) | inconclusive [inhibitor, partial curve] | –
Cc1ccc(Nc2nc(-c3ccc(S(=O)(=O)N4CCCC4)cc3)cs2)cc1C | active: 1.85 µM | –
CCC(C(=O)NC(C)c1ccccc1)C(=O)NC(C)c1ccccc1 (centres undefined) | inconclusive [inhibitor, single point] | –
CCOC(=O)C#CC(CCc1ccccc1)OS(N)(=O)=O (centres undefined) | inconclusive [inhibitor, full curve, poor fit] | –
COc1ccc(OC)c(-c2cc(C(=O)Nc3cc(C)on3)no2)c1 | inconclusive [inhibitor, partial curve] | –
O=C1c2ccccc2C(Nc2cccnc2)N1Cc1ccccc1Cl (centres undefined) | inconclusive [inhibitor, single point] | –
CCCC(C)NC(=O)c1ccc2[nH]c3c(c2c1)CC(C)CC3 (centres undefined) | active: 4.65 µM | –
O=C(NNc1nc2cc3c(cc2s1)OCO3)c1ccc(F)cc1 | – | inactive: 45.7%
COc1ccc(N(CC(=O)NC2CCCCC2)C(=O)CCC(=O)Nc2nc(C)cs2)cc1 | inconclusive [inhibitor, partial curve, poor fit] | –
COc1ccc(Cl)cc1C(=O)NNC(=O)COC(=O)CC(NC(C)=O)c1ccccc1 (centres undefined) | – | inactive: -11.1%
Cc1nn(-c2ccc(C(=O)N3CCN(S(=O)(=O)c4ccccc4C(F)(F)F)CC3)cc2)c(C)c1Cl | active: 13.1 µM | –
CCc1nc(N2CCN(C(=O)c3ccco3)CC2)c2c3c(sc2n1)CCCC3 | inconclusive [inhibitor, partial curve] | –
CC(C)n1c(=NC(=O)c2ccco2)c(C#N)cc2c(=O)n3ccccc3cc21 | – | inactive: -12.3%
COc1ccc(-n2c(-c3ccco3)nc3ccccc3c2=O)cc1 | inconclusive [inhibitor, single point] | –
Cc1noc(C)c1COc1ccc(C(=O)NCCOc2ccccc2)cc1 | inconclusive [inhibitor, single point] | –

Compound | Potency | activity change, negative = inhibition
Cc1cc(C)c2oc(C(=O)Nc3ccc(S(=O)(=O)Nc4nccs4)cc3)cc(=O)c2c1 | inconclusive [inhibitor, single point] | –
CC(C)CN(C(=O)COC(=O)CSc1ccccc1F)c1c(N)n(Cc2ccccc2)c(=O)[nH]c1=O | inconclusive [inhibitor, partial curve, poor fit] | –
CCCCc1cc(=O)oc2cc(C)cc(OCC(=O)Nc3ccccn3)c12 | active: 4.15 µM | –
CCN1C(=O)C(Cc2nc3ccccc3c(=O)n2-c2ccccc2)c2ccccc21 (centres undefined) | inconclusive [inhibitor, single point] | –
CC(C)NC(=O)COc1coc(CN2CCN(C(=O)c3ccco3)CC2)cc1=O | – | inactive: 9.91%
COc1cc(C(=O)N(C)Cc2cccc(OC)c2OC)ccc1OCC(=O)Nc1cccc(C(F)(F)F)c1 | active: 11.7 µM | –
Cc1cccc2cc(CN(Cc3ccccc3)C(=S)NCCCN(C)C)c(=O)[nH]c12 | inconclusive [inhibitor, single point] | –
O=C1C2C(c3ccccc3)CC=CC2[C@H](c2ccc3ccccc3c2)N1Cc1ccccc1 (some centres undefined) | inconclusive [inhibitor, partial curve, poor fit] | –
O=C(/C=C1\NC2(CCCC2)Cc2ccccc21)N1CCOCC1 | inconclusive [inhibitor, partial curve, poor fit] | –
Cc1ccc(S(=O)(=O)c2nc(-c3ccccc3)oc2NCCCN2CCOCC2)cc1 | inconclusive [inhibitor, single point] | –
Cc1ccc(-n2c(Cc3cccs3)nnc2SCC(=O)Nc2ccc(F)c(F)c2)cc1 | inconclusive [inhibitor, single point] | –
O=C(Cn1cnc([N+](=O)[O-])n1)c1ccccc1 | – | inactive: 27.3%
O=C(CCCN1C(=O)/C(=C/c2cccs2)SC1=S)Nc1ccc(C(=O)O)cc1 | inconclusive [inhibitor, partial curve, poor fit] | –
COc1ccc(N2CC(NC(=O)NCCC(C)C)CC2=O)cc1 (centres undefined) | inconclusive [inhibitor, partial curve, poor fit] | –
Cc1ccccc1C(=O)NC(NC(=S)Nc1ccc(S(N)(=O)=O)cc1)C(Cl)(Cl)Cl (centres undefined) | inconclusive [inhibitor, partial curve, poor fit] | –
CCCCn1c(N)c(N(CC)C(=O)c2cc(S(=O)(=O)N3CCCCCC3)ccc2OC)c(=O)[nH]c1=O | – | inactive: 0%
COCCNc1nc(SCC(=O)N2CCN(c3ccccc3OC)CC2)nc2ccccc12 | inconclusive [inhibitor, single point] | –
CCOC(=O)Cn1c2c(c(=N)c3c1CCC3)CCCC2 | inconclusive [inhibitor, full curve] | –
O=C1NC(=O)C(c2ccccc2)(c2ccccc2)N1 | inconclusive [inhibitor, partial curve, poor fit] | –
CCOc1ccc(CCNC(=O)c2cccs2)cc1OCC | inconclusive [inhibitor, full curve, poor fit] | –
Cc1ccccc1OCCNc1cc(N2CC(C)NC(C)C2)ccc1[N+](=O)[O-] (centres undefined) | inconclusive [inhibitor, partial curve, poor fit] | –
CC(=O)c1nn(-c2cccc(Br)c2)cc1C(=O)c1cccc2ccccc12 | inconclusive [inhibitor, partial curve, poor fit] | –

Compound | Potency | activity change, negative = inhibition
CS(=O)(=O)Nc1cccc(C2=NN(S(=O)(=O)c3ccccc3)C(c3cccs3)C2)c1 (centres undefined) | inconclusive [inhibitor, single point] | –
Cc1ccccc1-c1nnc(SC(C)C(=O)NC2CCCC2)o1 (centres undefined) | inconclusive [inhibitor, single point] | –
COc1ccc(CCNC(=O)C/C(C)=N/NC(=O)C23CC4CC(CC(C4)C2)C3)cc1OC | inconclusive [inhibitor, partial curve, poor fit] | –
FC(F)(F)c1cccc(Cc2noc(CN3CCCC(CN4CCCC4)C3)n2)c1 (centres undefined) | active: 2.62 µM | –
C#CCOCCOCCOCCNc1nc(N2CCN(C(=O)CCCCCCCCCCNC(=O)Cn3cc(C[C@@H](C)O)nn3)CC2)nc(N2CCN(C(=O)CCCCCCCCCCNC(=O)[C@@H](CCC(=O)O)n3cc(CCCCCN)nn3)CC2)n1 | active: 1.04 µM | –
CCN(CC)CCNC(=O)c1ccc(NC(=O)C2CC(=O)N(c3ccc4c(c3)OCCO4)C2)cc1 (centres undefined) | inconclusive [inhibitor, partial curve, poor fit] | –
CC(C)CNC(=S)N(CCCN(C)C)Cc1cc2cc3c(cc2[nH]c1=O)OCCO3 | inconclusive [inhibitor, single point] | –
C#CCOCCOCCOCCNc1nc(N2CCN(C(=O)CCCCCCCCCCNC(=O)Cn3cc(CCCCCN)nn3)CC2)nc(N2CCN(C(=O)CCCCCCCCCCNC(=O)Cn3cc(CCCCCN)nn3)CC2)n1 | active: 1.65 µM | –
CN(c1ccc(C(=O)NCc2ccncc2)cc1)S(=O)(=O)c1ccc(Cl)cc1 | – | inactive: 22.8%
CCC(C(=O)NC(C)(C)C)N(C(=O)Cn1nnc(-c2ccccc2F)n1)c1cccc2c1CCCC2 (centres undefined) | inconclusive [inhibitor, partial curve, poor fit] | –
Cc1ccc(C(=O)NCN2CCN(c3ccc(F)cc3)CC2)cc1 | – | inactive: -14.8%
CCOC(=O)c1cccc(N2C(=O)C3C4C=CC(CC4)C3C2=O)c1 (centres undefined) | – | inactive: 2.21%
COc1ccc(NC(=S)N2CCCC2)cc1 | – | inactive: 13.5%
COc1cccc(/C=N/NC(=O)c2ccc(=O)[nH]n2)c1O | active: 5.86 µM | –
CCOc1ccc(CCNC(=O)COC(=O)c2c(C)nn(-c3ccccc3)c2C)cc1OCC | inconclusive [inhibitor, full curve] | –
CCOc1cc(C(=O)N2CCCN(C)CC2)cc(OCC)c1OCC | inconclusive [inhibitor, single point] | –
Cc1ccc(C(=O)Oc2ccccc2N2C(=O)C3CCCCC3C2=O)cc1 (centres undefined) | – | inactive: 62.4%
CCC1(c2ccc(F)cc2)NC(=O)N(CC(=O)N2CC(=O)Nc3ccccc32)C1=O (centres undefined) | inconclusive [inhibitor, single point] | –
CC(=O)c1ccc(NC(=O)CN2CCN(S(=O)(=O)c3ccc4ccccc4c3)CC2)cc1 | inconclusive [inhibitor, partial curve, poor fit] | –
Cc1ccccc1C(C(=O)NCc1ccco1)N(CC1CCCO1)C(=O)Cn1nnc2ccccc21 (centres undefined) | inconclusive [inhibitor, partial curve, poor fit] | –

Reference: PubChem BioAssay AID504832 (National Center for Advancing Translational Sciences (NCATS), 2011)
